Drawing on article PMC5836133, this text covers binding signal for 172 sequences.

This is one part of the list. At the low end of the ranking the order means little.

The subject of the assay is T1, GST-NbGlk1(82-244).
T1 sequence: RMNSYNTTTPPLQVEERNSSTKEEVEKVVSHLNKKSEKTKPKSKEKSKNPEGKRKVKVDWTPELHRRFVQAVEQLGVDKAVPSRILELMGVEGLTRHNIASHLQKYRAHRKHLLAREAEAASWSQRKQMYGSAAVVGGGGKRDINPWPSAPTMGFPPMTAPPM
The assay is described as follows: protein-binding microarray.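 Further: rank-based score ranging −0.5 to +0.5 with E above 0.45 taken as significant binding.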 Particulars: NbGlk1 is a Golden2-like transcription factor of Nicotiana benthamiana; high values mean tight binding; most listed sequences are background and not binding sites; double strand, one strand shown.
AGTAAAAG registered a binding signal of 0.163 E-score.

In the case of AGACACAG, the binding signal is -0.116 E-score.

Sequence ACAAGAGT gave a binding signal of -0.0409 E-score.

As to CAAGGTAC, the binding signal is -0.0903 E-score.

ATGAAGGG came in with a binding signal of -0.156 E-score.

In turn, CAGACAAG came in with a binding signal of -0.0341 E-score.

Regarding AACCGAAA, the binding signal came to 0.0561 E-score.

The sequence AAACTCTC came in with a binding signal of -0.0615 E-score.

ATCGTTCG: the binding signal was found to be 0.0477 E-score.

With ACATAACC, the binding signal is -0.0901 E-score.

AAGCGATT displayed a binding signal of 0.273 E-score.

For AACCCCAG, the binding signal was -0.287 E-score.

In turn, CAGCCATA came in with a binding signal of 0.0217 E-score.

Take AACGAGAT: the binding signal worked out at 0.309 E-score.

For the sequence ACCCGAAG, the binding signal is -0.225 E-score.

The sequence ATGGCACG had a binding signal of -0.111 E-score.

For the sequence ACATGTCC, the binding signal was -0.0591 E-score.

The sequence CAGATACC displayed a binding signal of 0.318 E-score.

In turn, ACGAAAGG returned a binding signal of -0.128 E-score.

Turning to ATCATTAC, the binding signal turned out to be 0.167 E-score.

For the sequence ACGGGGGC, the binding signal was -0.258 E-score.

Regarding AACTGACG, the binding signal is -0.0411 E-score.

AGCGATAT came in with a binding signal of 0.343 E-score.

AATATTCG: the binding signal was 0.258 E-score.

In turn, AAAACGAG came in with a binding signal of -0.057 E-score.

ACGGAAAT returned a binding signal of 0.345 E-score.

AAATTCAA had a binding signal of 0.138 E-score.

AAGCTCAA: the binding signal was -0.0483 E-score.

Turning to AGGCAACA, the binding signal is -0.0722 E-score.

For the sequence CAGCGGGA, the binding signal was -0.052 E-score.

ATTAACAG had a binding signal of 0.15 E-score.

CACGGACG: the binding signal was -0.0215 E-score.

For the sequence AGCGGCCT, the binding signal is -0.312 E-score.

Sequence ACATGCCC displayed a binding signal of -0.1 E-score.

Sequence ACCAGCCG gave a binding signal of -0.0411 E-score.

As for ATTCACTG, the binding signal was -0.0527 E-score.

In the case of AATCCGTG, the binding signal came to 0.322 E-score.

On to ACAAATCT, for which the binding signal came to 0.374 E-score.

In turn, ACTACCAA displayed a binding signal of -0.0229 E-score.

AATAGATG: the binding signal turned out to be 0.112 E-score.

Sequence AAACAGGC gave a binding signal of -0.127 E-score.

In turn, AGTTTTGG registered a binding signal of -0.112 E-score.

CACTGGGA displayed a binding signal of -0.134 E-score.

Sequence AAAAATTA came in with a binding signal of 0.196 E-score.

Sequence AAAGGTCG showed a binding signal of -0.0256 E-score.

In turn, AAAGGTGT yielded a binding signal of -0.0637 E-score.

The sequence AACACTCA registered a binding signal of -0.178 E-score.

As to AGGCGATA, the binding signal is 0.0663 E-score.

On to AGCACACC, for which the binding signal was -0.288 E-score.

On to AGTTCATA, for which the binding signal was -0.0426 E-score.

Sequence AAGACTAC gave a binding signal of -0.0595 E-score.

In the case of ACCTTGGG, the binding signal was -0.131 E-score.

As for AGACGTAG, the binding signal was -0.185 E-score.

With ATCATAAT, the binding signal amounted to 0.158 E-score.

For the sequence ATTCCGCA, the binding signal was 0.238 E-score.

ATCATCGA had a binding signal of 0.189 E-score.

In turn, AGACGGAC displayed a binding signal of -0.295 E-score.

For AAGTGTCC, the binding signal was -0.117 E-score.

In turn, AAGGCCTA showed a binding signal of -0.215 E-score.

ATAAGCAC showed a binding signal of -0.07 E-score.

Take ACTACACA: the binding signal was -0.076 E-score.

On to AAGACAAA, for which the binding signal amounted to 0.0299 E-score.

For the sequence AGAAGACA, the binding signal is -0.0586 E-score.

ACATAATC: the binding signal amounted to 0.327 E-score.

The sequence ATCTTGCA displayed a binding signal of 0.299 E-score.

For AACGGCCT, the binding signal was -0.23 E-score.

In turn, AGGATCAG displayed a binding signal of 0.149 E-score.

In turn, AAATTGAA yielded a binding signal of 0.146 E-score.

As to AGAAGTTC, the binding signal was -0.0915 E-score.

For the sequence CAAGCAAG, the binding signal is -0.0466 E-score.

On to ATTCGATG, for which the binding signal worked out at 0.108 E-score.

In the case of ATACTAGG, the binding signal amounted to 0.0655 E-score.

For the sequence ACGTGCGG, the binding signal was -0.0422 E-score.

For AATCACCG, the binding signal is 0.281 E-score.

AGCATTAA: the binding signal is -0.0283 E-score.

On to AACATCAG, for which the binding signal amounted to 0.0932 E-score.

In the case of ATTTAAAT, the binding signal was 0.185 E-score.

The sequence AGCCTACG gave a binding signal of -0.241 E-score.

Take AAACAAAA: the binding signal came to 0.161 E-score.

As for ACGGTCTC, the binding signal is -0.272 E-score.

Consider ATCATATG, for which the binding signal was 0.0481 E-score.

AACCGTGA: the binding signal is -0.036 E-score.

The sequence CAATTACA registered a binding signal of 0.129 E-score.

For the sequence AGCCAGGG, the binding signal is -0.251 E-score.

In turn, AGATAGAT yielded a binding signal of 0.267 E-score.

In turn, ACGACAGG had a binding signal of -0.0951 E-score.

Consider AGCTCCAT, for which the binding signal is -0.2 E-score.

ACGTGAAG had a binding signal of -0.148 E-score.

Consider ACGCGGGA, for which the binding signal is -0.0525 E-score.

On to AGTGATAG, for which the binding signal came out at 0.0301 E-score.

ATAAGGCC displayed a binding signal of -0.082 E-score.

Regarding AGTGTTCA, the binding signal was -0.0479 E-score.

The sequence AACACGGT came in with a binding signal of -0.227 E-score.

Turning to ATATTCAT, the binding signal is 0.0735 E-score.

Regarding CACGTCGC, the binding signal was -0.158 E-score.

Turning to AGGGTGGC, the binding signal was -0.211 E-score.

Take AATCGACC: the binding signal turned out to be 0.2 E-score.

AAACGAGC displayed a binding signal of -0.119 E-score.

In turn, ACCGGGAC had a binding signal of -0.269 E-score.

AGACCGAA yielded a binding signal of -0.0913 E-score.

AACTGACT registered a binding signal of -0.174 E-score.

Turning to AGTGAGCG, the binding signal was -0.14 E-score.

The sequence ATGATACA yielded a binding signal of 0.076 E-score.

AGTTCGTA registered a binding signal of 0.0646 E-score.

ACAGGCCA gave a binding signal of -0.227 E-score.

Sequence ATGTTCTA displayed a binding signal of 0.0337 E-score.

In turn, AGAATTAA returned a binding signal of 0.00444 E-score.

In the case of AAAAGCGT, the binding signal was -0.0089 E-score.

As for ACTGGACA, the binding signal is -0.0739 E-score.

As for AGTACAAT, the binding signal turned out to be 0.164 E-score.

With AACGTAAT, the binding signal stood at 0.361 E-score.

In the case of ATATACAG, the binding signal is 0.262 E-score.

ATGGGGTA registered a binding signal of 0.0777 E-score.

With AAAGACCT, the binding signal was -0.0935 E-score.

In turn, AAGAATCA registered a binding signal of 0.325 E-score.

With AATGAATA, the binding signal was 0.0644 E-score.

With AACATGGC, the binding signal is -0.0896 E-score.

AGCTGCGC came in with a binding signal of -0.227 E-score.

Consider CAAGATCA, for which the binding signal was found to be 0.186 E-score.

In turn, ACCCGTCA came in with a binding signal of -0.294 E-score.

Take ACTCAGCC: the binding signal is -0.264 E-score.

Turning to AGGGTGCA, the binding signal is -0.177 E-score.

On to AACGATAT, for which the binding signal was found to be 0.29 E-score.

Sequence CAACACAG had a binding signal of -0.0803 E-score.

Regarding AGCCGATG, the binding signal was -0.134 E-score.

With AGGTTAGG, the binding signal was -0.186 E-score.

ACTACCTG had a binding signal of -0.151 E-score.

ACGTTTTC gave a binding signal of -0.00724 E-score.

Turning to AGGGTATA, the binding signal is -0.0406 E-score.

In the case of AACCATGC, the binding signal was -0.103 E-score.

AACATATA had a binding signal of 0.113 E-score.

In turn, AACTAACG displayed a binding signal of 0.134 E-score.

In turn, ACCAGAGC came in with a binding signal of -0.0916 E-score.

With AATTCGAG, the binding signal amounted to 0.0534 E-score.

For the sequence ATCGCTCA, the binding signal was 0.0471 E-score.

On to ACCTAGAA, for which the binding signal turned out to be 0.0466 E-score.

ACCATGGT showed a binding signal of -0.237 E-score.

In turn, AACCTCTT gave a binding signal of -0.0885 E-score.

On to AGATCAGA, for which the binding signal is 0.248 E-score.

Consider ATCGGTCC, for which the binding signal is -0.142 E-score.

ACGTAATC registered a binding signal of 0.476 E-score.

The sequence AAAGTTGC yielded a binding signal of -0.104 E-score.

AACTTTAG showed a binding signal of -0.084 E-score.

CAATTCAC: the binding signal is -0.00949 E-score.

Consider AGATGTAC, for which the binding signal was -0.0183 E-score.

Sequence AGGGTTGA had a binding signal of -0.0692 E-score.

On to ACCGTTCC, for which the binding signal is -0.0437 E-score.

AGAAGTAG displayed a binding signal of -0.118 E-score.

As for ATATCTTC, the binding signal was 0.412 E-score.

Regarding AGCCCCAT, the binding signal is -0.219 E-score.

Turning to AATCCCCT, the binding signal is 0.262 E-score.

AGGAAGAG came in with a binding signal of -0.199 E-score.

AGTCAACC: the binding signal is -0.186 E-score.

As for CAGAGATA, the binding signal amounted to 0.161 E-score.

For the sequence ATCGGCAC, the binding signal was determined as 0.0121 E-score.

Sequence ACTCACGC came in with a binding signal of -0.116 E-score.

AACCACCT: the binding signal is -0.344 E-score.

ACATCTCC came in with a binding signal of -0.00227 E-score.

ATACTACC gave a binding signal of 0.00264 E-score.

The sequence ACAGTGGC came in with a binding signal of -0.0484 E-score.

As to AGAGGCTC, the binding signal is -0.199 E-score.

ACCCGCAC: the binding signal is -0.158 E-score.

ATCGTTGC gave a binding signal of 0.126 E-score.

ATGCTATA came in with a binding signal of 0.113 E-score.

Take AAGACGGT: the binding signal was -0.125 E-score.

Consider ATGAGAAC, for which the binding signal is -0.00755 E-score.

As for AATAGATA, the binding signal came to 0.245 E-score.

For ATCCTAAA, the binding signal worked out at 0.253 E-score.

Consider CACTACCA, for which the binding signal is -0.0981 E-score.

With AATGTTGC, the binding signal was 0.041 E-score.

On to AAGGTGGG, for which the binding signal is -0.221 E-score.

ACATTTTG: the binding signal was -0.117 E-score.
